The whole screen tested about 150,000 compounds, of which about 540 (0.36%) showed an effect of 50% or more. Some of the results follow.

What is called % Inhibition is the relative decrease from the control value, in per cent.

The test system of the assay is Plasmodium falciparum. Nature of the assay: Primary screen in NF54 nanoGlo assay, in single point, at 2uM, 72h; a lower Z score goes with more inhibition. Format: functional, Erythrocyte. As to conditions: timepoint 72 hour.
Consider `C[C@H]1CN(C(=O)NCC(C)(C)c2cccs2)CCS1(=O)=O`, for which the “% Inhibition” value is -15% and the Z score was determined as 2.06.
For `O=C(NCCN1CCCC1)c1ccc2nc(-c3ccc(Cl)cc3)cn2c1` the same measures were 75% and -6.47.
For the compound `COCC1CN(c2ncnc3c2ncn3CC2(CO)CCOCC2)CC(C)O1` (centres undefined), the “% Inhibition” value was -4% and the Z score was found to be 0.71.
With `Cc1cnn(CC2CCCN2C(C)C(=O)Nc2cc(C)on2)c1` (centres undefined), the “% Inhibition” value is -2% and the Z score was determined as 0.29.
On the same counts, the results for `Cc1nc(C)n(C2CN(C(=O)c3nc(-c4cnn(C)c4)oc3C)C2)n1` are -9% and 1.55.
On to `Cc1cc(Cl)ccc1C(=O)N[C@H]1CN(CC(N)=O)C[C@@H]1C1CC1`, for which the “% Inhibition” value came out at 1% and the Z score was -0.2.
On the same counts, the results for `COc1ccccc1C(=O)NCc1ccc(-c2nc3ccccc3s2)cc1` are -12% and 1.6.
Turning to `CC(NC(=O)NC(C)c1ccc(-c2cccnc2)cc1)c1ccncc1` (centres undefined), the “% Inhibition” value amounted to 7% and the Z score was -1.01.
On the same counts, the results for `Cc1nc2ccc(N(C)C(=O)[C@H]3CC(=O)N(C4CCCC4)C3)cc2s1` are -7% and 0.94.
As to `CC(C)Cc1cc(C(=O)N2C[C@@H]3NC(=O)CN(C4CC4)Cc4cccc(c4)Oc4cccc(c4)CO[C@H]3C2)on1`, the “% Inhibition” value came to 1% and the Z score is given as -0.12.
On the same counts, the results for `CN(Cc1cccc2cc[nH]c12)C[C@H]1COCCO1` are -1% and 0.14.
On to `CC(C)NC(=O)N1CCC2(CC1)N[C@@H](C(C)C)C(=O)N2CCc1ccccn1`, for which the “% Inhibition” value is -3% and the Z score was 0.52.
With `Cc1n[nH]c(C)c1CCn1cnc(-c2ccccc2)c1-c1cccnc1`, the “% Inhibition” value turned out to be 7% and the Z score is reported as -1.04.
As to `O=C(O)C1(Oc2ccccc2F)CCN(c2nccs2)CC1`, the “% Inhibition” value is listed as -10% and the Z score is on record as 1.65.
On the same counts, the results for `CC(C)(C)n1nc2nc(N3CCCC3)nc(-c3ccc(F)c(Cl)c3)c2c1N` are -2% and 0.26.
For `Cc1nnc2n1CC(NC(C(=O)NC(C)C)c1ccccc1)CC2` (centres undefined) the same measures were -12% and 1.83.
For `C[C@H](NC(=O)N1CCC(c2cc(=O)[nH]cn2)CC1)c1ccc(Cl)cc1` the same measures were -3% and 0.42.
Turning to `Cn1ccnc1C(=O)N1CC(n2cc(C(=O)NCC3CC3)nn2)C1`, the “% Inhibition” value is on record as -2% and the Z score is 0.37.
For `CCN1CN(Cc2cnnn2C)CC1=O` the same measures were -5% and 0.92.
On the same counts, the results for `CC(C)Oc1cc(N[C@H]2CCCC[C@@H]2O)nc(N)n1` are -6% and 1.11.
On the same counts, the results for `CCN(C(=O)c1occc1C)c1ncccc1C` are -9% and 1.11.
In the case of `N#Cc1ccc([C@H]2CC(O)=Nc3nc(N4CCOCC4)sc32)cc1`, the “% Inhibition” value was -1% and the Z score turned out to be 0.13.
On the same counts, the results for `O=C(CCOc1ccc(F)cc1)N1CCc2[nH]ncc2C1` are -11% and 1.22.
On the same counts, the results for `CCCCS(=O)(=O)N1CCC2(CCCC2)C1` are -5% and 0.45.
On the same counts, the results for `CCOC(=O)[C@H]1CCCN(Cc2nc(N3CCCN(C(C)=O)CC3)c3ccccc3n2)C1` are 8% and -1.06.
Regarding `CCO[C@H]1[C@H](NC(=O)c2cccnc2)c2ccccc2C12CCN(C(=O)c1cc(C(C)=O)n[nH]1)CC2`, the “% Inhibition” value was -11% and the Z score came to 2.21.
Regarding `CC#CCCn1cc(CCO)c(C(F)(F)F)n1`, the “% Inhibition” value is -14% and the Z score turned out to be 1.73.
`O=C([C@H]1CC(=O)N(c2cccc(-c3noc(C4CCC4)n3)c2)C1)N1CCN(c2ccccc2)CC1`: the “% Inhibition” value was -1% and the Z score stood at 0.14.
On the same counts, the results for `COc1cc([C@H]2CC(=O)Nc3nc(N)sc32)ccc1OCc1ccccc1Cl` are 2% and -0.2.
For `CCc1ccc(-c2ccc(N(CC)c3cccc(C)c3)nn2)cc1S(N)(=O)=O` the same measures were -21% and 2.5.
With `COc1cc(OC)cc(C(=O)Nn2cc(C(=O)NC[C@H]3CCCO3)c3ccccc3c2=O)c1`, the “% Inhibition” value is on record as 11% and the Z score was -1.95.
As to `COC1(OC)CCN(Cc2cc3c(cn2)OCCO3)C[C@@H]1O`, the “% Inhibition” value was 0% and the Z score was 0.01.
On to `Cc1ccc2c(Nc3cccc(F)c3)c(C(=O)N3CCCC3)cnc2n1`, for which the “% Inhibition” value is -11% and the Z score was determined as 1.57.
On to `C[C@@H]1CN(C(=O)c2ccc(C(F)F)o2)c2ncnn2C1`, for which the “% Inhibition” value is given as -11% and the Z score was 2.02.
For `Cc1c(CNC2CCC(C)CC2)c(C(=O)O)c(C)n1-c1ccc(Cl)cc1` (centres undefined), the “% Inhibition” value is -8% and the Z score was found to be 1.05.
On the same counts, the results for `O=S(=O)(N[C@H]1CO[C@H]2[C@@H]1OC[C@@H]2n1nnnc1Oc1ccc2c(c1)OCO2)c1ccc2ccccc2c1` are -7% and 1.2.
In the case of `C[C@H](NC(=O)c1ccc(Br)c(O)c1)C1(N2CCOCC2)CCCC1`, the “% Inhibition” value is 3% and the Z score is given as -0.37.
`COc1ccc(-c2cn[nH]c2C(C)C)c(OC)n1`: the “% Inhibition” value was determined as 3% and the Z score is reported as -0.39.
As to `Cc1ccc(S(=O)(=O)Nc2nc3ccccc3nc2Nc2ccc3c(c2)OCO3)c(C)c1`, the “% Inhibition” value is on record as 31% and the Z score is -3.53.
With `O=C(c1cccnc1)N1CCN(CCc2ccccc2)[C@@H]2CS(=O)(=O)C[C@@H]21`, the “% Inhibition” value worked out at 1% and the Z score is on record as -0.26.
`CC(=O)Nc1c(-c2ccccn2)nsc1C(=O)NCc1cc(F)cc(F)c1`: the “% Inhibition” value is on record as -13% and the Z score is listed as 1.23.
On the same counts, the results for `NC[C@@H]1CN(c2nccc(C(F)F)n2)C[C@H]1c1ccccc1` are -11% and 1.4.

The values above are taken from ChEMBL document CHEMBL4888484, “Replenishing the malaria drug discovery pipeline: Screening and hit evaluation of the MMV Hit Generation Library 1 (HGL1) against asexual blood stage Plasmodium falciparum ,using a nano luciferase reporter read-out” (2022).
